Results as given in PubChem BioAssay AID686979 (National Center for Advancing Translational Sciences (NCATS), 2013).
The campaign covered roughly 420,000 compounds. About 50,000 (12%) were called active. Inconclusive means that the source gave no clear call. Such entries were picked first, then a sample of the others. Calls follow the shape of the dose curve; as a rule, active = well fitted inhibition curve with a large enough effect; inconclusive = small, poorly fitted or top-dose-only effect; inactive = flat fitted curve, though single readings scatter. Potencies of inconclusive entries are left out as doubtful fits.

Assay: qHTS for Inhibitors of human tyrosyl-DNA phosphodiesterase 1 (TDP1): qHTS in cells in presence of CPT; also: nearly all actives have a fitted effect of over 55% in size
Details: chicken DT40 Tdp1-/-;hTDP1 cells + 20 nM CPT, ATP luminescence, 48 h; activity change, negative = growth inhibition: at 46.2 µM (top of the series)
Procedure, shortened: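 Cell growth measured by CellTiter-Glo luminescence after a minimum 48 h, 37 C compound exposure with 20 nM CPT in Tdp1-knockout DT40 cells stably expressing hTDP1, seeded 400/well; qHTS titration format.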
% is scaled to controls: 0 for no effect and ±100 for the full control effect; potency is read from the fitted curve at half-maximal effect; tags tell the direction and shape of the fitted curve.

SMILES | Potency | activity change, negative = growth inhibition
N#Cc1c(SCC(N)=O)nc2c(c1-c1ccncc1)CCCC2 | inconclusive [inhibitor, single point] | –
O=C(Cn1c(NCCCO)nc2ccccc21)c1ccc(Cl)cc1Cl | – | inactive: 1.94%
Brc1cc2c(cc1/C=N/Nc1nc(N3CCOCC3)nc(N3CCOCC3)n1)OCO2 | inconclusive [inhibitor, single point] | –
Cc1ccc(CNC(=O)c2sc3nc4n(c(=O)c3c2C)CCCCC4)cc1 | inconclusive [inhibitor, single point] | –
Cn1c(=O)c(CCc2ccccc2)nc2cnc(OCc3ccccc3)nc21 | – | inactive: 11.6%
CN1CCN(c2nc(-c3ccncc3)nc3ccccc23)CC1 | inconclusive [inhibitor, single point] | –
CCCc1cc(=O)[nH]c2nnc(SCC(=O)Nc3cccc(NC(C)=O)c3)n12 | inconclusive [inhibitor, full curve] | –
C/C(=N\OC(=O)c1ccc(F)cc1)c1sc(-c2ccc(Cl)cc2)nc1C | – | inactive: 5.08%
COC(=O)c1ccccc1NC(=O)C1CCCN(c2ncnc3onc(C)c23)C1 (configuration not stated) | inconclusive [inhibitor, full curve] | –
CN(C(=O)c1ccccc1C(=O)OCC(=O)c1ccc(F)cc1)c1ccccc1 | – | inconclusive: -32.5% [inhibitor]
COc1ccc(C)cc1-n1nnnc1SCC(=O)Nc1cccnc1Cl | inconclusive [inhibitor, partial curve] | –
O=C1NC[C@H](c2ccccc2)OC(=O)[C@@H](Cc2ccc(F)cc2)C/C=C\C[C@H]1CC(=O)N(CCO)Cc1ccccc1 | active: 8.2 µM | –
COCC(C)n1c(C)cc(C(=O)CSc2nc3ccccc3c(=O)[nH]2)c1C (configuration not stated) | inconclusive [inhibitor, single point] | –
CCCn1c(N)c(C(=O)CN(C)CC(=O)Nc2ccccc2C(F)(F)F)c(=O)[nH]c1=O | active: 14.6 µM | –
COc1cc(CN2CCCCCC2)cc(OC)c1O | – | inactive: -9.27%
COc1ccc2c(c1)CC/C(=C\C=C\c1ccccc1)C2=O | inconclusive [inhibitor, single point] | –
N#CC(=C(O)CN1CCN(c2ccccc2F)CC1)c1nc(-c2ccccc2)cs1 | – | inactive: 3.18%
O=C(c1cc(F)ccc1F)C1CCCN(C(=O)CCN2CCCCO2)C1 (configuration not stated) | – | inactive: 5.15%
CSC(=S)N/N=C/c1c[nH]c2ccccc12 | active: 0.651 µM | –
COc1ccc(C(=O)N/N=C/c2ccc(N3CCOCC3)o2)cc1OC | inconclusive [inhibitor, single point] | –
COC(=O)C1=C(C)N(CC2CC2)C(=O)N[C@H]1c1ccccc1 | – | inactive: -4.23%
Cc1ccc(C(=O)N(c2ccc(C)cc2)S(=O)(=O)c2ccc(Cl)cc2)cc1 | inconclusive [inhibitor, single point] | –
COc1ccc(C)cc1NC(=O)C(OC(=O)c1ccc([N+](=O)[O-])o1)c1ccccc1 (configuration not stated) | active: 16.4 µM | –
CN(Cc1ccccc1)S(=O)(=O)c1ccc(N2CCCC2=O)cc1 | inconclusive [inhibitor, single point] | –

SMILES | Potency | activity change, negative = growth inhibition
Cc1ccc(S(=O)(=O)n2c3ccc(Cl)cc3c3nc(C)sc32)cc1 | – | inconclusive: -30.7% [inhibitor]
Cc1ccc(-n2nc(C(=O)N(C)Cc3ccccc3)c3c4ccccc4n(C)c3c2=O)cc1 | active: 23.1 µM | –
COc1ccc(NC(=O)N2CCCC(c3ccccc3)C2)cc1 (configuration not stated) | – | inactive: -1.17%
COc1cc(OC)c(N(C)C(=O)c2cc3c(=O)oc4ccccc4c3s2)cc1Cl | – | inactive: 4.07%
O=S(=O)(c1cccc(Cl)c1)N1CCN(c2nc(-c3ccccc3)nc3ccccc23)CC1 | inconclusive [inhibitor, single point] | –
O=c1c2ccccc2n2c(-c3ccccc3F)nnc2n1CCc1ccccc1 | inconclusive [inhibitor, single point] | –
Cc1ccc(NC(=O)CSc2nnc([C@@H]3CCCN3C(=O)OC(C)(C)C)o2)c(C)c1 | inconclusive [inhibitor, partial curve] | –
CO/N=C\CC(=O)Nc1ccc(Cl)c(Cl)c1 | inconclusive [inhibitor, single point] | –
Cc1ccc(Cn2ncc3c(NN)ncnc32)cc1 | – | inconclusive: -32% [inhibitor]
COc1ccc2c(c1)O[C@H](c1ccc3c(c1)OCO3)[C@@H](O)C2=O | active: 20.6 µM | –
CCc1ccc(N2CSC3=C(C#N)C(c4cccs4)CC(=O)N3C2)cc1 (configuration not stated) | inconclusive [inhibitor, single point] | –
CCOC(=O)C1=C(C)NC(C)=C(C(=O)OCC)C1C(=O)OCC(=O)NC(C)c1ccccc1 (configuration not stated) | inconclusive [inhibitor, single point] | –
COc1cc(C(=O)OCC(=O)c2cc(C)n(C)c2C)cc(NC(=O)c2ccco2)c1OC | inconclusive [inhibitor, partial curve] | –
Cc1ccc2c(c1)-c1nc3ccccc3cc1C2=NC1CCCCC1 | inconclusive [inhibitor, single point] | –
CC(=O)c1ccc(CCCCc2ccc(C(C)=O)cc2)cc1 | inconclusive [inhibitor, single point] | –
CCN(CC)C(=O)CSCc1cnn(-c2ccccc2)c1-n1cccc1 | inconclusive [inhibitor, single point] | –
CCN(CC)CCN(C(=O)c1ccc2c(c1)CCCC2)c1nc2ccc(OC)cc2s1 | active: 18.4 µM | –
COCc1cc(=O)[nH]c2cc(NC(=O)C3CC3)c(C)cc12 | – | inactive: 11.5%
COc1cccc(NC(=O)CN2CCN(S(=O)(=O)c3ccc(F)cc3)CC2)c1 | – | inactive: -17.6%
CCCCCC(=O)N1C[C@H](n2cc(COC(=O)c3ccccc3)nn2)[C@@H](O)C[C@@H]1c1ccc(Cl)cc1 | inconclusive [inhibitor, single point] | –
CC(C)C[C@H](NC(=O)N1CC(=O)Nc2ccccc21)C(=O)N1CCC(C(=O)O)CC1 | – | inactive: 9.97%
COc1cc(NC(C)CCc2ccccc2)cc(OC)c1OC (configuration not stated) | active: 13 µM | –
Cc1ccc(NC(=O)C(Cc2ccccc2)N2Cc3ccccc3C2=O)cc1Cl (configuration not stated) | inconclusive [inhibitor, single point] | –
CN(CC(=O)Nc1ccc(OC(F)(F)F)cc1)C1CCCCC1 | inconclusive [inhibitor, single point] | –

SMILES | Potency | activity change, negative = growth inhibition
Cn1c2ccccc2c2ccc3c(c21)C(=O)C=CC3=O | active: 0.411 µM | –
Cc1cccc(C)c1NC(=O)COC(=O)[C@@H]1CCCN1C(=O)c1cccs1 | – | inactive: -5.52%
CCN(C(=O)c1c(C)oc2ncn(CC(C)C)c(=O)c12)c1cccc(Cl)c1 | inconclusive [inhibitor, single point] | –
COc1ccc(-c2noc(C3CCCN(C(=O)c4ccccc4OC)C3)n2)cc1OC (configuration not stated) | inconclusive [inhibitor, single point] | –
CO[C@H]1[C@H](NC(=O)c2cccs2)c2ccccc2C12CCN(Cc1cccn1-c1ccccn1)CC2 | inconclusive [inhibitor, single point] | –
Cc1c(NC(=O)CSCc2c(F)cccc2Cl)c(=O)n(-c2ccccc2)n1C | – | inactive: 10.3%
O=C(/C=C/c1c(Cl)cccc1Cl)NCCCn1ccnc1 | – | inactive: -0.421%
COC(=O)c1cn(CC(=O)Nc2ccc(OC)cc2)c2ccccc12 | – | inactive: -13.5%
COc1cc2c(cc1NC(=O)Nc1cccc(C)c1)oc1ccccc12 | inconclusive [inhibitor, single point] | –
Cc1cc(-c2nnc3sc(-c4ccc(Cl)cc4Cl)nn23)n[nH]1 | inconclusive [inhibitor, single point] | –
COc1ccc(S(=O)(=O)N2CCCCCC2)cc1NC(C)C(=O)Nc1ccc(NC(C)=O)cc1 (configuration not stated) | inconclusive [inhibitor, single point] | –
COc1cccc(NC(=O)CC(c2ccc(OC(C)C)cc2)c2ccccc2OC)c1 (configuration not stated) | inconclusive [inhibitor, full curve] | –
CCCOc1ccc(C(=O)NCc2ccco2)cc1 | inconclusive [inhibitor, single point] | –
CCCn1c(CCC(=O)Nc2ccc(C)c(Cl)c2)nc2cccnc21 | inconclusive [inhibitor, single point] | –
Oc1ccc(Br)cc1-c1nc2cnccn2c1NC1CCCC1 | inconclusive [inhibitor, single point] | –
COc1cc(CCC(=O)NCc2ccc3c(c2)OCO3)cc(OC)c1OC | – | inactive: 0.901%
CCOc1ccc(/C=N/NC(=S)NC2CC3CC2C2C=CCC32)cc1 (configuration not stated) | active: 16.4 µM | –
CCc1nc2ccc(C(=O)N(C)CC(=O)Nc3ccc(F)c(F)c3F)cc2nc1CC | inconclusive [inhibitor, single point] | –
COc1cc(/C=C2\SC(N3CCc4ccccc4C3)=NC2=O)cc(OC)c1OC | active: 20.6 µM | –
CC(C)C(=O)Nc1ccc(NC(=S)NC(=O)c2ccc([N+](=O)[O-])cc2)cc1 | – | inconclusive: -33.4% [inhibitor]
CCn1c(C)[n+](Cc2ccccc2)c2ccc(Cl)cc21 | active: 10.3 µM | –
COCCNC(=O)C1CCCN(Cc2ccccc2F)CC1 (configuration not stated) | – | inactive: -26%
CCOc1ccc(CCNC(=O)Cn2cccc2C(=O)c2ccccc2C)cc1OCC | inconclusive [inhibitor, single point] | –
O=C(CC1N=C2c3ccccc3N=C(SCc3cccc(Cl)c3)N2C1=O)NCCc1ccccc1 (configuration not stated) | inconclusive [inhibitor, single point] | –
